Source: patent publication US4690926A, “Boxazomycin A and B, new antibiotics containing benzoxazole nucleus” (Bristol-Myers Company, priority 1986, dated 1987)

What was measured:
M. luteus PCI 1001 = experiment: Effect of pH on antimicrobial activity (MIC, Table 8); assay type: cell-based; details: Micrococcus luteus
S. aureus 209P = experiment: as above; assay type: cell-based; details: Staphylococcus aureus

SMILES | MIC (M. luteus PCI 1001; PCI1001, pH 6) [µg/mL] | MIC (M. luteus PCI 1001; PCI1001, pH 7) [µg/mL] | MIC (S. aureus 209P; pH 6) [µg/mL] | MIC (S. aureus 209P; pH 7) [µg/mL]
Cc1ncc(O)c(-c2nc3c(C(N)=O)c(O)cc(C)c3o2)n1 [Boxazomycin B] | 0.2 (≈ 0.666 µM) | 0.8 (≈ 2.66 µM) | 0.2 (≈ 0.666 µM) | 0.8 (≈ 2.66 µM)
Cc1cc(O)c(C(N)=O)c2nc(-c3nc(CO)ncc3O)oc12 [Boxazomycin A] | 0.1 (≈ 0.316 µM) | 0.4 (≈ 1.26 µM) | 0.4 (≈ 1.26 µM) | 0.8 (≈ 2.53 µM)

Values after ≈ are worked out from the molar mass of the structure shown.
